In ChEMBL document CHEMBL1201862, “PubChem BioAssay data set” (2004):

tested on: NCI-H322M; experiment: DTP human tumour cell line panel, 48 h

| SMILES | GI50 |
| --- | --- |
| O=C1c2ccccc2-c2nc3ccc(O)cc3n21 | inactive: > 100 µM |
| CCOC(=O)c1cccn1S(=O)(=O)c1cc(Cl)ccc1NC(=O)CC | inactive: 54.5 µM |
| N=C(N)NC(=N)Nc1ccccc1.Sc1nc2ccccc2s1 | inactive: > 100 µM |
| COc1nc(C#CC(C)(C)C)nc(OC)n1 | inactive: 23.5 µM |
| COc1ccc(C(=O)Cc2ccc(Cl)cc2)cc1OC | inactive: > 100 µM |
| CCOC(=O)CCSc1nc2ccc(I)cc2c(=O)n1Cc1ccccc1 | inactive: 30 µM |
| COP1(=O)NCc2ncccc2O1 (stereo unspecified) | inactive: > 100 µM |
| CC(/C=C/C=C\C=C\C=C(/C)C(=O)NC(C)CO)=C\C(C)C(O)/C(C)=C/C(C)CCc1ccccc1 (stereo unspecified) | inactive: 1.54 µM |
| O=C(OCC1CC(C2(O)CCCCC2)C(=O)O1)c1ccccc1 (stereo unspecified) | inactive: > 100 µM |
| CCOC(=O)CC[C@@H](NC(=O)c1ccc(NCc2ccc3nc(OC)c(OC)nc3c2)cc1)C(=O)OCC | inactive: 57.9 µM |
| C/C(=N\NC(=O)c1ccccc1O)C1=CNc2ccccc2S1 | inactive: 4.68 µM |
| CN(C)CCNC(=O)c1cccc2c(NC(CS)C(=O)O)c3ccccc3nc12 (stereo unspecified) | inactive: 9.2 µM |
| OCC(O)C(O)C(O)c1nnn[nH]1 (stereo unspecified) | inactive: > 100 µM |
| CCN(CC)CCOc1ccc(N2C(=O)c3cccc4cc([N+](=O)[O-])cc(c34)C2=O)cc1 | inactive: 15.1 µM |
| COC(=O)C(CCSC)NC(=O)CNC(=O)CSc1nnc(COc2ccc(Cl)cc2)n1-c1ccccc1 (stereo unspecified) | inactive: 18.2 µM |
| O=C1C=CC(=O)c2c1ccc1c3ccccc3n(-c3ccccc3[N+](=O)[O-])c21 | inactive: 16.9 µM |
| Oc1cccc(/C=N/N=c2/[nH][nH]/c(=N/N=C/c3cccc(O)c3)c3ccccc23)c1 | inactive: 22.2 µM |
| CN(N=O)C(=O)Nc1c[nH]c(=O)[nH]c1=O | inactive: > 100 µM |
| Cc1ccc(S(=O)(=O)OCCn2cnc3nc(NC(=O)c4ccccc4)[nH]c(=O)c32)cc1 | inactive: > 100 µM |
| COCCCCCC(=O)CP(=O)(OC)OC | inactive: > 100 µM |
| O=C(CN1c2ccccc2Sc2ccccc21)n1cnc2ccccc21 | inactive: > 100 µM |
| CC1=C(O)C(=O)C2C(=O)C1C(C)C2c1ccccc1 (stereo unspecified) | inactive: > 100 µM |
| COC(=O)[C@]12CC[C@H]3CC[C@H]([C@H]31)[C@H](c1ccccc1)N2 | inactive: 18.5 µM |
| c1ccc2c(c1)CCc1c-2n(CCN2CCOCC2)c2ccccc12 | inactive: > 100 µM |

| SMILES | GI50 |
| --- | --- |
| COc1cc(S(=O)(=O)Nc2ccc(-c3csc(N4C(=O)C(Cl)C4c4ccccc4O)n3)cc2)ccc1Cl (stereo unspecified) | active: 0.655 µM |
| COc1cc(/C=N\O)nc(-c2ccccn2)c1 | active: 0.228 µM |
| CCCCCCCCCCC/C(=N/O)c1ccc(O)c2ncccc12 | inactive: 11 µM |
| CCOc1ccc(NC2=NC(=O)C(CC(=O)Nc3ccccc3[N+](=O)[O-])S2)cc1 (stereo unspecified) | inactive: > 100 µM |
| Nc1nc(Cl)cc(NCC2CC(O)(CO)C2)n1 (stereo unspecified) | inactive: > 100 µM |
| CC12CC/C(=N/NC(N)=O)C3C1CCCC32 | inactive: > 100 µM |
| COC(=O)C(=O)C(C(=O)C(N)=O)c1nc2ccc(C(=O)c3ccccc3)cc2nc1O (stereo unspecified) | inactive: > 100 µM |
| COC(=O)c1c(OC)cccc1C(=O)O | inactive: > 100 µM |
| O=c1c(NCc2ccccc2)c(C2(c3ccccc3F)SCCCS2)c1=O | inactive: > 100 µM |
| COCCOCOC(C)(C)[C@H](CCO)O[Si](c1ccccc1)(c1ccccc1)C(C)(C)C | inactive: 17.2 µM |
| N[C@@H](Cc1ccccc1)C(=O)N1CCC[C@@H]1P(=O)(Oc1ccccc1)Oc1ccccc1 | inactive: > 100 µM |
| COc1cccc(/N=N/N2CCCC2)c1 | inactive: > 100 µM |
| O=C1CCCCC(=O)Nc2ccccc2N1 | inactive: > 100 µM |
| COc1c2c(cc3c1C(O)N1CC[C@]34[C@H]3O[C@H]3[C@H](OC)C[C@@H]14)OCO2 (stereo partly specified) | inactive: 78.2 µM |
| COc1cc2c([C@@H](OC(=O)c3ccccc3)c3ccc4c(c3)OCO4)nccc2c(OC)c1OC | inactive: > 100 µM |
| CC(C)OP(=O)(CN(C)/C(F)=N\C(F)(F)F)OC(C)C | inactive: > 100 µM |
| O=C1CC(O)c2c(Cl)sc(Cl)c21 (stereo unspecified) | inactive: 18.9 µM |
| CC1CC(C)CN(S(=O)(=O)c2cc(Cl)c(Oc3ccc([N+](=O)[O-])cc3Cl)c(Cl)c2)C1 (stereo unspecified) | inactive: > 100 µM |
| COc1ccc(CNC(=O)NCn2cc(-c3ccccc3)nn2)cc1 | inactive: > 100 µM |
| Oc1nc(S)nc2c1CCCN2 | inactive: > 100 µM |
| Cn1c2ccccc2c2[nH]c3ccccc3c(=O)c21 | inactive: > 100 µM |
| CN/N=C(\C)c1c(O)cc(C)oc1=O | inactive: > 100 µM |
| CCSc1nnc(-c2ccccc2)nc1Cc1ccc(OC)cc1 | inactive: > 100 µM |
| O=c1[nH]c(Nc2nc3ccccc3[nH]2)nc2c1CCC2 | inactive: > 100 µM |

| SMILES | GI50 |
| --- | --- |
| CC(C)(O)c1cc2c(cc1C(C)(C)O)-c1ccccc1-2 | inactive: > 100 µM |
| CCOC(=O)CC[C@H](NC(=O)[C@H](N)Cc1ccc(N(CCCl)CCCl)cc1)C(=O)OCC | inactive: 24.5 µM |
| Cc1ccc(/N=C/C=C(\Nc2ccc(C)cc2)c2ccc3ccccc3c2)cc1 | active: 0.655 µM |
| O=C1C(=Cc2ccc(O)cc2)N=C(c2ccccc2)N1n1c(-c2ccccc2)nc2ccccc2c1=O | inactive: 74.6 µM |
| COc1ccc(/C=C2\N=C(c3ccccc3)N(Nc3nnc(NN4C(=O)/C(=C/c5ccc(OC)cc5)N=C4c4ccccc4)c4ccccc34)C2=O)cc1 | inactive: 41.3 µM |
| COC(=O)/C(C#N)=C1\NN=NN1CCCN1CCOCC1 | inactive: > 100 µM |
| NC(=O)[C@H](Cc1ccc(O)cc1)NC1=C(Cl)C(=O)c2c(O)ccc(O)c2C1=O | inactive: 8.53 µM |
| CC(C)(C)C1=CC(=C2C=Cc3ccccc3O2)C=C(C(C)(C)C)C1=O | inactive: 6.08 µM |
| O=C(O)c1cc2ccccc2c(/N=N\c2cc(C(F)(F)F)ccc2Cl)c1O | inactive: > 100 µM |
| COc1cc(/C=C2\C(=O)N(c3cc(Cl)ccc3Cl)C(c3ccccc3)S2(=O)=O)cc(OC)c1OC (stereo unspecified) | inactive: > 100 µM |
| CSC1=N/C(=C\c2cccs2)C(=O)N1CN1CCOCC1 | inactive: > 100 µM |
| COC(=O)C(CCC1(C)OCCO1)=[N+]=[N-] | inactive: > 100 µM |
| OC(Cc1ccc2ccccc2n1)(C(F)(F)Cl)C(F)(F)Cl | inactive: > 10 µM |
| CC(C)(C)/N=N/C(C)(C)N=C=O | inactive: > 100 µM |
| CCOC(=O)c1cc(C2CCN(c3ccccc3)C2=O)c(C(=O)/C=C(/C)O)[nH]1 (stereo unspecified) | inactive: > 100 µM |
| C=CCOC1=C2CC[C@H](O)[C@@]2(C)CCC1=O | inactive: > 100 µM |
| CC(C)/C=N\n1c(N)c(C#N)c(C#N)c1C(C)C | inactive: 41.9 µM |
| O=C1C(Cl)=C(N2CCN(CCOCCO)CC2)C(=O)c2ccccc21 | inactive: 19.2 µM |
| CN(C)c1ccc(/C=C2\N=C(NN)NC2=O)cc1 | inactive: 65.5 µM |
| OCCCN(CCc1ccc(Cl)c(Cl)c1)CCN1CCCC1 | inactive: 53 µM |
| C#CCN1C(=O)CN2C(Cl)(Cl)C2(c2ccccc2)c2cc(Cl)ccc21 (stereo unspecified) | inactive: 93.5 µM |
| CCOP(=O)(OCC)/C(C#N)=C/c1cccn1C(C)C | inactive: > 100 µM |
| Cc1c(Cc2ccccc2)c(Cc2ccccc2)c(C)[s+]1[O-] | inactive: 21.8 µM |
| O=C(O)CCSC(=O)Nc1cccc(F)c1 | inactive: > 100 µM |

| SMILES | GI50 |
| --- | --- |
| Nc1c(C(=O)c2ccc(Cl)cc2)[nH]c(NCc2ccccc2)c1C(=S)Nc1ccccc1 | inactive: 2.03 µM |
| O=S(=O)(O)/C(=N\c1cccc(Cc2ccccc2)c1)Nc1cccc(Cc2ccccc2)c1 | inactive: 17.8 µM |
| c1cc2nnc1SCCSCCSc1ccc(nn1)SCCSCCS2 | inactive: > 100 µM |
| CC(C)NC(=O)O/N=C1\CCC2[C@@H]3CC=C4C[C@@H](OC(=O)NC(C)C)CC[C@]4(C)C3CC[C@]12C (stereo partly specified) | inactive: 1.69 µM |
| c1ccc(CN2C3C4N(Cc5ccccc5)C2C2N(Cc5ccccc5)C(C(N2Cc2ccccc2)N4Cc2ccccc2)N3Cc2ccccc2)cc1 | inactive: > 100 µM |
| COc1ccc2nc(N/N=C/c3sccc3C)cc(C)c2c1 | inactive: 20.6 µM |
| CCOn1c(C2(CC3CCN(C(=O)c4ccccc4)CC3)OCCO2)cc2ccccc21 | inactive: 19.3 µM |
| C/C=C(\C)C(=O)OC1/C=C(\C)CC/C=C(\C)CC2OC(=O)C(C)(OC(C)=O)C12 (stereo unspecified) | inactive: > 100 µM |
| COc1ccc(/N=N/C(=O)NC(CC(C)C)C(=O)NC(Cc2ccccc2)C(=O)O)cc1 (stereo unspecified) | inactive: 94.4 µM |
| CC(C)(C)C1=CC(=N/N=c2\scc(-c3ccccc3)n2-c2ccccc2)C=C(C(C)(C)C)C1=O | inactive: > 100 µM |
| Sc1nnc(COc2ccc(Cl)cc2)[nH]1 | inactive: > 100 µM |
| O=C1NC2(CCCCC2)C2=C1CCCCC2 | inactive: > 100 µM |
| C[N+](C)([O-])CCCNc1c2ccccc2nc2cccc([N+](=O)[O-])c12 | active: 0.528 µM |
| COc1cc2c(cc1O)[C@H](Cc1ccc(Oc3cc(C[C@H]4c5cc(OC)c(OC)cc5CCN4C)ccc3OC)cc1)NCC2 | inactive: 16.4 µM |
| CCN(CC)C(=O)c1cc([N+](=O)[O-])c(=O)n2c1[nH]c1ccccc12 | inactive: > 100 µM |
| CCOC1c2nc3ccccc3nc2-c2ccccc2N1C(C)=O (stereo unspecified) | inactive: > 100 µM |
| NC(CCc1nc(-c2ccccc2)cs1)C(=O)O (stereo unspecified) | inactive: > 100 µM |
| O=C(O)Cc1cc(=O)[nH]c2c1C(=O)CCC2 | inactive: > 100 µM |
| Cc1ccccc1NC(=O)C(=O)C(C1OC(=O)c2ccccc21)[N+](=O)[O-] (stereo unspecified) | inactive: > 100 µM |
| CCCCC(C(=O)CCC(=O)Nc1ccc(Cl)c(Cl)c1)C(=O)C(C)C (stereo unspecified) | inactive: > 100 µM |
| C[C@H]1O[C@@H](c2c(O)ccc3ccccc23)C[C@@H](N(C)C)C1O (stereo partly specified) | inactive: > 100 µM |
| O=C1c2ccccc2-c2nc(-c3cccc([N+](=O)[O-])c3)nnc21 | inactive: 4.71 µM |
| CCOC(=O)C1=C(C)C2C=C(c3cccs3)CC(c3ccc(Cl)cc3)=C2OC1=O (stereo unspecified) | inactive: > 100 µM |
| Nc1ccccc1N | inactive: > 100 µM |

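Grown in 96-well plates, cells were treated for 48 hours with each compound at five concentrations. Insufficient inhibition: endpoint recorded as highest concentration tested. GI50 is the concentration that inhibits growth by half.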 Calls of active or inactive are those of the source. Cut-off read from the data, not from the text of the source: active = GI50 up to about 1.1 µM and inactive = higher.
